Screen size: about 310,000 compounds; about 2,200 (0.71%) showed an effect of 50% or more. The effect is printed as a negative number. Some of the results follow.
target: human ether-à-go-go-related gene (hERG) potassium channel (human, UniProt Q12809); assay: primary screen, population patch clamp on CHO cells stably expressing hERG
Sequence (Q12809 whole entry, looked up): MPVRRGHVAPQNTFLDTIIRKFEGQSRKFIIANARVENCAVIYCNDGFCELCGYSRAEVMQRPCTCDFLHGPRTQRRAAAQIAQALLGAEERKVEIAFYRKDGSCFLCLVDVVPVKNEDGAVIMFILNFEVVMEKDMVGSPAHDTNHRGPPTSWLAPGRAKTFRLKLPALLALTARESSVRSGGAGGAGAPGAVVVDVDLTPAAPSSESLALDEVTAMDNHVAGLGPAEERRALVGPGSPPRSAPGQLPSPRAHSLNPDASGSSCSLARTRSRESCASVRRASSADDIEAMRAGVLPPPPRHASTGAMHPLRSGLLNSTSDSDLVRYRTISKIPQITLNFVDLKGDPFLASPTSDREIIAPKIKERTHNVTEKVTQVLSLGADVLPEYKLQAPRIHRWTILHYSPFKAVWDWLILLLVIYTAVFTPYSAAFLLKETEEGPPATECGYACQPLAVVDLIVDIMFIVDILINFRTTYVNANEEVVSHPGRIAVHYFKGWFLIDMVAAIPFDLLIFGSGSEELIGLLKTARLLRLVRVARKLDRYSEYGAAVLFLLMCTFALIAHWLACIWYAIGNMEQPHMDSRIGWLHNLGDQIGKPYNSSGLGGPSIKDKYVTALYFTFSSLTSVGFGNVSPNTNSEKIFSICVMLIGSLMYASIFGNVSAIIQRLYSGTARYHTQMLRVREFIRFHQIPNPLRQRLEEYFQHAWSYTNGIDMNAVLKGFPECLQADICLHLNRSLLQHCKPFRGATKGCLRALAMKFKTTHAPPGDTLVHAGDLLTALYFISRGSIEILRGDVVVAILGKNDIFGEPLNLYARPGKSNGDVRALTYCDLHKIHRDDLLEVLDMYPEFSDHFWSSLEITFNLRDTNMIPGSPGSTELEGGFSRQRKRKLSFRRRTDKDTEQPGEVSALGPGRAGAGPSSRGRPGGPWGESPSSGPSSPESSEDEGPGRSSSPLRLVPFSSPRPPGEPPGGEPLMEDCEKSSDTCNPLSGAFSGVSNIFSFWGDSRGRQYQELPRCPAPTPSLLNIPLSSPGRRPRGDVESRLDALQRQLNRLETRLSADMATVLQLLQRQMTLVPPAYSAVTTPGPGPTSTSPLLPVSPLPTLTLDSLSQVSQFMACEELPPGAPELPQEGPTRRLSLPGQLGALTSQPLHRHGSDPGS

| Structure (SMILES) | hERG current change (%, negative = inhibition) at 1uM [%] |
| --- | --- |
| COc1ccc(-c2cc3nc4c(c(N5CCC6(CC5)OCCO6)n3n2)CCC4)cc1 | 7.61 |
| Cn1c(COc2ccc3ccccc3c2)nnc1SCC(N)=O | 9.4 |
| CC(=O)c1ccccc1OCCOc1ccccc1C(C)=O | -10.8 |
| CCOC(=O)c1cc(=O)c2ccc(OCC(=O)Nc3ccccc3)cc2o1 | 9.79 |
| COCCN1C(=O)c2ccc(C(=O)NCc3ccco3)cc2C1=O | 2.03 |
| CCCOc1ccc(N2C(=O)C3ON(c4ccccc4)C(CCC)C3C2=O)cc1 (stereo not drawn) | 10.1 |
| C=CCN1CCN(C(c2cccc(OC)c2OC)c2nnnn2CCC(C)C)CC1.Cl (stereo not drawn) | 10.7 |
| Cc1cccc(C(=O)n2cnnc2N)c1 | 10.6 |
| O=C(CCNC(=O)C1CCN(S(=O)(=O)c2ccccc2)CC1)NCc1ccncc1 | 22.3 |
| O=c1[nH]cc(S(=O)(=O)c2ccccc2)[nH]1 | 8.88 |
| O=c1c2cn[nH]c2nc(SCc2c(F)cccc2F)n1-c1ccc(Cl)cc1 | 8.44 |
| O=C(Oc1cccc(N2C(=O)CCC2=O)c1)c1ccccc1 | 7.35 |
| CC(C)C(c1nnnn1C1CCCC1)N1CCN(C(=O)c2ccco2)CC1 (stereo not drawn) | -5.97 |
| Cc1ccc(S(=O)(=O)Nc2ccc3c(c2)OCCO3)cc1 | 15.5 |
| Cc1ccc(-c2nc(CSCC(=O)N3CCCC3)c(C)o2)cc1 | -14.1 |
| CCCC(=O)Nc1nnc(COC)s1 | 6.75 |
| CN=c1scc(C)n1/N=C/c1cc(Br)c(O)c(OC)c1 | 18.2 |
| S=C(NCc1cccc(Cl)c1)NCc1ccco1 | 14.9 |
| CCc1cc2c(=O)c(-c3nc(C)cs3)c(CCCC(=O)O)oc2cc1O | 22.4 |
| CCNc1nc2cccnc2s1 | 10.3 |
| CCOc1ccccc1NC(=O)COC(=O)C(CC(C)C)N1C(=O)C2CC=CCC2C1=O (stereo not drawn) | 15.6 |
| CC(=O)c1cccc(NC(=S)NCCC2=CCCCC2)c1 | 9.39 |
| COc1ccc(Br)cc1CNc1ccc(N2CCOCC2)cc1 | 12.5 |

| Structure (SMILES) | hERG current change (%, negative = inhibition) at 1uM [%] |
| --- | --- |
| O=c1[nH]cnc2sc3c(c12)CCCC3 | 16.1 |
| CS(=O)(=O)Nc1nnc(SCC(=O)Nc2cccc([N+](=O)[O-])c2)s1 | 3.42 |
| NS(=O)(=O)c1cccc(NC(=O)c2cccc(-c3ccc(O)cc3)c2)c1 | 18 |
| CCc1ccc(S(=O)(=O)N/N=C\c2ccc3c(c2)OCO3)cc1 | 17.2 |
| COc1ccccc1NC(=O)CCC(=O)OCC(=O)c1ccc(C)c([N+](=O)[O-])c1 | 9.32 |
| CCOC(=O)c1c(C)[nH]c(C)c1C(=O)C(Cc1ccccc1)N(C)C.Cl (stereo not drawn) | 10.9 |
| Cc1ccccc1OCCC(=O)OCC(=O)NC1CC1 | 1.25 |
| CC(NC(=O)c1cccc(C(F)(F)F)c1)C1CCCO1 (stereo not drawn) | -4.83 |
| COc1ccc(-c2nc(CCNC(=O)c3ccco3)cs2)cc1OC | 7.08 |
| O=C(NCc1cccnc1)c1cccc(Cl)c1 | 7.16 |
| COC(=O)[C@H](CCSC)NC(=O)c1cc2c(cn1)[nH]c1ccccc12 | 14.3 |
| N#CCCN(C(=O)CO/N=C/c1cccc([N+](=O)[O-])c1)c1ccccc1 | 17.1 |
| Cc1ccc(S(=O)(=O)NNC(=O)Nc2cccc3ccccc23)cc1 | 12.5 |
| Cl.O=C(CCN1CCOCC1)c1ccc(Br)cc1 | 14.9 |
| Clc1ccc(-c2nc3cc(CN4CCCCC4)ccc3o2)cc1 | 9.71 |
| COc1ccc(O[C@H]2C=C[C@@H](c3ccccc3)O[C@@H]2COC(=O)CC/C(C)=N/OC[C@@H](O)[C@H]2O[C@@H]3OC(C)(C)O[C@@H]3[C@H]2O)cc1 | -11.2 |
| CC(=O)Nc1ncc2c(n1)CC(c1ccco1)CC2=O (stereo not drawn) | -4.91 |
| Cc1cccc(N2CCN(C(=O)c3cn4ccccc4n3)CC2C)c1 (stereo not drawn) | 12.1 |
| COc1ccccc1NS(=O)(=O)c1ccc(-c2cc(C)no2)s1 | 13.5 |
| Cc1cccc(NC(=O)c2csnn2)n1 | 9.84 |
| O=C1CC2c3ccccc3C1C1C(=O)N(CCO)C(=O)C21 (stereo not drawn) | 7.35 |
| O=C(Nc1ccc(Oc2ccccc2)cc1)c1ccco1 | 4.74 |
